The RNAGym collection of RNA variant scans (doi:10.1093/nar/gkz1192)
Read counts are not given, so values of variants with three or more changes are uncertain.

B1: CPEB3 Ribozyme (parent)
chain: UAACAGGGGGCCACAGCAGAAGCGUUCACGUCGCAGCCCCUGUCAGAUUCUGGUGAAUCUGCGAAUUCUGCUGUAUAUCUC

Variants of: B1
Assay: self-cleavage, relative activity (ratio to wild type); higher = more cleavage; in vitro, sequencing
Summary of the method: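 Libraries of CPEB3 self-cleaving ribozyme mutants came from rounds of error-prone PCR and carried barcodes, which DNA sequencing matched to variants. In vitro transcription used T7 RNA polymerase at 37°C for 5 hours, with a further 15 min in DNase I before EDTA stopped the reaction; the ribozymes cleaved during both steps. The RNA was reverse transcribed with template switching and sequenced on Illumina. Relative activity is the cleaved/total read fraction of a variant divided by that of the unmutated ribozyme, averaged over three batches with at least 5 reads.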

Row | Variant | self-cleavage
1 | UAACGGGGGGCCACAGCAGAGGCGUUCACGUCGCAGCCCCUGUCAGAUUCUGGCGAAUCUGCGAAUUCUGCUGUAUAUCUC [A5G A21G U54C] | 0.44
2 | UAACGGGGGGCCACAGCAGAGGCGUUCACGUCGCAGCCCCUGUCAGAUUCUGGUGAAUCAGCGGAUUCUGCUGUAUAUCUC [A5G A21G U60A A64G] | 0.14
3 | UAACGGGGGGCCACAGCAGAGGCGUUCACGUCGCAGCCCCUGUCAGAUUCUGGUGAAUCUGCGAAUUCUGCCGUAUAUCUC [A5G A21G U72C] | 0.67
4 | UAACGGGGGGCCACAGCAGAUGCGUUCACGUCGCUGCCCCUGUCAGAUUCUGGUGAAUCUGCGAAUUAUGCUGUAUAUCAC [A5G A21U A35U C68A U80A] | 0.38
5 | UAACGGGGGGCCACAGCAGAUGCGUUCACGUCGCAGCCCCUGUCAGAUUCUGGUGGAUCUGCGAAUUCUGCUGUAUAACUC [A5G A21U A56G U78A] | 0.39
6 | UAACGGGGGGCCACAGCAGAUGCAUUCACGUCGCUGCCCCUGUCAGAUUCUGGUGGAUCUGCGAAUUCUGCUGUAUAUCUC [A5G A21U G24A A35U A56G] | 0.08
7 | UAACGGGGGGCCACAGCAGAUGCGUUCACGACGCAGCCCCUGUCAGAUUCUGGUGAAUCUGCGAAUUCUGCUGUACAUCUC [A5G A21U U31A U76C] | 0.31
8 | UAACGGGGGGCCACAGCAGAUGCGUUCACGUCGCAGCCCCUGUCAGAUUCUGGUGAAUCUGCGAAUUCUGCAGUAUAUCUC [A5G A21U U72A] | 0.39
9 | UAACGGGGGGCCACAGCAGAUGCGUUCACGUCGCAGCCCCUGUCAGAUUCUGGUGAAUCUGCGAAUUCUGCUGUAUAUCCC [A5G A21U U80C] | 0.65
10 | UAACGGGGGGCCACAGCAGAAGCGUUCCCGUCGCAGCCCCUGUCAGAUUCUGGUGAAUCUGCGUAUUCUGCUGUAUAUCUC [A5G A28C A64U] | 0.35
11 | UAACGGGGGGCCACAGCAGAAGCGUUCCCGUCGCAGCCCCUGUCAGAUUCUGGUGAAUCUGCGAAUACUGCUGUAUAUCUC [A5G A28C U67A] | 0.12
12 | UAACGGGGGGCCACAGCAGAAGCGUUCGCGUCGCUGCCCCUGACAGAUUCUGGUGAAUCUGCGAAUUCUGCUGUAUAUCUC [A5G A28G A35U U43A] | 0.36
13 | UAACGGGGGGCCACAGCAGAAGCGUUCGCGUCGCAGCCCCUGUCGGAUUCUGGAGAAUCUGCCAAUUCUACUGUAUGUCUC [A5G A28G A45G U54A G63C G70A A77G] | 0.12
14 | UAACGGGGGGCCACAGCAGAAGCGUUCGCGUCGCAGCCCCUGUCAGUUUCCGGUGAAUCUGCGGAUUCUGCUGUAAAUCUC [A5G A28G A47U U51C A64G U76A] | 0.04
15 | UAACGGGGGGCCACAGCAGAAGCGUUCGCGUCGCAGCCCCUGUCAGAUUCUGGUGUAUCUGCGAAUUCUGCUGUAUACCUC [A5G A28G A56U U78C] | 0.34
16 | UAACGGGGGGCCACAGCAGAAGCGUUCGCGUCGCAGCCCCUGUCAGAUUCUGGUGAAUCUGCGGAUUCGGCUGUAUAUCUC [A5G A28G A64G U69G] | 0.22
17 | UAACGGGGGGCCACAGCAGAAGCGUUCGCGUCGCAGCCCCUGUCAGAUUCUGGUGAAUCUGCGAAUUCUGCUGUAUUUCUC [A5G A28G A77U] | 0.2

Row | Variant | self-cleavage
18 | UAACGGGGGGCCACAGCAGAAGCGUUCGCGUCGUAGCCCCUGUCAGAUUCAGGUGUAUCUGCGAAUUCUGCUGUAUACCUC [A5G A28G C34U U51A A56U U78C] | 0.08
19 | UAACGGGGGGCCACAGCAGAAGCGUUCGCGUCGCAGCCCUUGUCAGAUUCUGGUGAAUCCGCGAAUUCUGCUGUAUAUCUC [A5G A28G C40U U60C] | 0.05
20 | UAACGGGGGGCCACAGCAGAAGCGUUCGCGUCGCAGCCCCUGUAAGAUUCUGGUGAAUCUGCGAAUUCAGCUGUAUAUCUC [A5G A28G C44A U69A] | 0.07
21 | UAACGGGGGGCCACAGCAGAAGCGUUCGCGUCGCAGCCCCUGUCAAAUUCUGGUGAAUCCGCGAAUUCUGCAGUAUAUCUC [A5G A28G G46A U60C U72A] | 0.07
22 | UAACGGGGGGCCACAGCAGAAGCGUUCGCGCCGCAGCCCCCUUCAGAUUCUGGUGAAUCUGCGGGUUCUGCUGUAUAUCUC [A5G A28G U31C U41C G42U A64G A65G] | 0.31
23 | UAACGGGGGGCCACAGCAGAAGCGUUCGCGUCGCAGCCCCAGUCAGAUUCUGGUGAAUCUGCGAAUUCUGCUGUACGUCUC [A5G A28G U41A U76C A77G] | 0.11
24 | UAACGGGGGGCCACAGCAGAAGCGUUCGCGUCGCAGCCCCUGCCAGAUGCUGGUGAACCUGCGAAUUCUGCUGUAUAUCUC [A5G A28G U43C U49G U58C] | 0
25 | UAACGGGGGGCCACAGCAGAAGCGUUCGCGUCGCAGCCCCUGUCAGAAUCUGGUGAAUCUGCGAAUCCCGCAGUAUAUCUC [A5G A28G U48A U67C U69C U72A] | 0.11
26 | UAACGGGGGGCCACAGCAGAAGCGUUCGCGUCGCAGCCCCUGUCAGAUCCUGGUGAAUCUGCGAAUUCCGCUGUAUAUCUC [A5G A28G U49C U69C] | 0.1
27 | UAACGGGGGGCCACAGCAGAAGCGUUCGCGUCGCAGCCCCUGUCAGAUUCAGGUGAAUCUGCGAAUUCUGCCGUAUAUCUC [A5G A28G U51A U72C] | 0.45
28 | UAACGGGGGGCCACAGCAGAAGCGUUCGCGUCGCAGCCCCUGUCAGAUUCCGGUGGAUCUGCGAAUUCUGCUGAAUAUCGC [A5G A28G U51C A56G U74A U80G] | 0.45
29 | UAACGGGGGGCCACAGCAGAAGCGUUCGCGUCGCAGCCCCUGUCAGAUUCUGGCUAAUAUGCGAAUUCUGCUGUAUAUCUC [A5G A28G U54C G55U C59A] | 0.06
30 | UAACGGGGGGCCACAGCAGAAGCGUUCGCGUCGCAGCCCCUGUCAGAUUCUGGUGAACCUGCGAAUUCCGCUGUAUAUCUC [A5G A28G U58C U69C] | 0.24
31 | UAACGGGGGGCCACAGCAGAAGCGUUCGCGUCGCAGCCCCUGUCAGAUUCUGGUGAAUCUGCGAACUCCGCCGUAUAUACC [A5G A28G U66C U69C U72C C79A U80C] | 0.19
32 | UAACGGGGGGCCACAGCAGAAGCGUUCGCGUCGCAGCCCCUGUCAGAUUCUGGUGAAUCUGCGAAUUCUGCUGAAUAUCUC [A5G A28G U74A] | 0.63
33 | UAACGGGGGGCCACAGCAGAAGCGUUCUCGUCGCGGCCCAUGUCAGAUUCUGGUGAAUCUGCGAGUUCUGCUGUAUAUCCC [A5G A28U A35G C40A A65G U80C] | 0.06
34 | UAACGGGGGGCCACAGCAGAAGCGUUCUCGUCGCAGCCCCUGUCAGAUUCUGGUGUAUCUGCGAAUUCUGCUGUAUAUCUC [A5G A28U A56U] | 0.14
